These results are taken from patent US20230348616A1 (MIE UNIVERSITY, published 2023).

This experiment deals with T1, HLA-A*0201/β2-microglobulin/NY-ESO peptide complex (human, biotinylated with E. coli biotin ligase at the added recognition sequence (biotinylated form used in the ELISA)).
T1 construct: also called HLA/NY-ESO; HLA-A2/NY-ESO
The experiment is described as follows: SPR (Biacore T200), scFv captured by anti-His antibody, HLA/NY-ESO as analyte, single cycle kinetics.

B1: NYC-0005 (scFv)
scFv: GEVQLVESGGGVVQPGGSLRLSCVASGFTFDDYAMYWVRQVPGKDLEWVSLISGDGDITYYVDSVKGRFTVSRDNNKNSLYLQMKSLRVEDTALYYCAKDMIYYASWSGYGSSDYYYYVMDVWGQGTTVTVSSGGGGSGGGGSGGGGS[gap - about 100 residues]TRLEIKGAAAGAGGDYKDDDDKGAAAHHHHHH
notes: Captured by anti-His antibody in SPR; also called scFv of mAb24955N
Turning to B1, the Kd turned out to be 9.3 nM.

B2: NYC-0007 (scFv)
scFv: GEVQLVESGGGVVQPGGSLRLSCAASGFTFDDYAMHWVRQAPGKGLEWVSLISGDGDNTYYADSVKGRFTISRDNNKNSLYLQMNSLRTEDTAFYYCAKELIFGKVLHDFYYYVMDVWGQGTTVTVSSGGGGSGGGGSGGGGS[gap - about 100 residues]TRLEIKGAAAGAGGDYKDDDDKGAAAHHHHHH
notes: Captured by anti-His antibody in SPR; also called scFv of mAb28075P
Turning to B2, binding was characterised by a dissociation constant (Kd) of 1000 nM. This Kd is about 110-fold higher than that of the molecule before.
